{"source": "PubChem BioAssay AID504333", "about": "(National Center for Advancing Translational Sciences (NCATS), 2011)", "note": "Screen size: about 360,000 compounds; about 16,000 (4.4%) were called active. The inconclusive results got no clear call from the source; some entries with a clear call stand among them for comparison. The call rests on the fitted dose curve; in most records, active means well fitted inhibition curve with a large enough effect; inconclusive means small, poorly fitted or top-dose-only effect; inactive means no such curve, though single readings can be large or run the other way. Where the call is inconclusive, the potency comes from a doubtful curve fit. On the % scale 0 is the no-effect control and ±100 the full control effect; potency means the concentration at half of the fitted maximal effect; tags describe the fitted curve by direction and shape."}
{"molecular_target": "Bromodomain adjacent to zinc finger domain protein 2B (Homo sapiens) (UniProt Q9UIF8)", "sequence (Q9UIF8 whole entry, looked up, the tested form may be a part)": "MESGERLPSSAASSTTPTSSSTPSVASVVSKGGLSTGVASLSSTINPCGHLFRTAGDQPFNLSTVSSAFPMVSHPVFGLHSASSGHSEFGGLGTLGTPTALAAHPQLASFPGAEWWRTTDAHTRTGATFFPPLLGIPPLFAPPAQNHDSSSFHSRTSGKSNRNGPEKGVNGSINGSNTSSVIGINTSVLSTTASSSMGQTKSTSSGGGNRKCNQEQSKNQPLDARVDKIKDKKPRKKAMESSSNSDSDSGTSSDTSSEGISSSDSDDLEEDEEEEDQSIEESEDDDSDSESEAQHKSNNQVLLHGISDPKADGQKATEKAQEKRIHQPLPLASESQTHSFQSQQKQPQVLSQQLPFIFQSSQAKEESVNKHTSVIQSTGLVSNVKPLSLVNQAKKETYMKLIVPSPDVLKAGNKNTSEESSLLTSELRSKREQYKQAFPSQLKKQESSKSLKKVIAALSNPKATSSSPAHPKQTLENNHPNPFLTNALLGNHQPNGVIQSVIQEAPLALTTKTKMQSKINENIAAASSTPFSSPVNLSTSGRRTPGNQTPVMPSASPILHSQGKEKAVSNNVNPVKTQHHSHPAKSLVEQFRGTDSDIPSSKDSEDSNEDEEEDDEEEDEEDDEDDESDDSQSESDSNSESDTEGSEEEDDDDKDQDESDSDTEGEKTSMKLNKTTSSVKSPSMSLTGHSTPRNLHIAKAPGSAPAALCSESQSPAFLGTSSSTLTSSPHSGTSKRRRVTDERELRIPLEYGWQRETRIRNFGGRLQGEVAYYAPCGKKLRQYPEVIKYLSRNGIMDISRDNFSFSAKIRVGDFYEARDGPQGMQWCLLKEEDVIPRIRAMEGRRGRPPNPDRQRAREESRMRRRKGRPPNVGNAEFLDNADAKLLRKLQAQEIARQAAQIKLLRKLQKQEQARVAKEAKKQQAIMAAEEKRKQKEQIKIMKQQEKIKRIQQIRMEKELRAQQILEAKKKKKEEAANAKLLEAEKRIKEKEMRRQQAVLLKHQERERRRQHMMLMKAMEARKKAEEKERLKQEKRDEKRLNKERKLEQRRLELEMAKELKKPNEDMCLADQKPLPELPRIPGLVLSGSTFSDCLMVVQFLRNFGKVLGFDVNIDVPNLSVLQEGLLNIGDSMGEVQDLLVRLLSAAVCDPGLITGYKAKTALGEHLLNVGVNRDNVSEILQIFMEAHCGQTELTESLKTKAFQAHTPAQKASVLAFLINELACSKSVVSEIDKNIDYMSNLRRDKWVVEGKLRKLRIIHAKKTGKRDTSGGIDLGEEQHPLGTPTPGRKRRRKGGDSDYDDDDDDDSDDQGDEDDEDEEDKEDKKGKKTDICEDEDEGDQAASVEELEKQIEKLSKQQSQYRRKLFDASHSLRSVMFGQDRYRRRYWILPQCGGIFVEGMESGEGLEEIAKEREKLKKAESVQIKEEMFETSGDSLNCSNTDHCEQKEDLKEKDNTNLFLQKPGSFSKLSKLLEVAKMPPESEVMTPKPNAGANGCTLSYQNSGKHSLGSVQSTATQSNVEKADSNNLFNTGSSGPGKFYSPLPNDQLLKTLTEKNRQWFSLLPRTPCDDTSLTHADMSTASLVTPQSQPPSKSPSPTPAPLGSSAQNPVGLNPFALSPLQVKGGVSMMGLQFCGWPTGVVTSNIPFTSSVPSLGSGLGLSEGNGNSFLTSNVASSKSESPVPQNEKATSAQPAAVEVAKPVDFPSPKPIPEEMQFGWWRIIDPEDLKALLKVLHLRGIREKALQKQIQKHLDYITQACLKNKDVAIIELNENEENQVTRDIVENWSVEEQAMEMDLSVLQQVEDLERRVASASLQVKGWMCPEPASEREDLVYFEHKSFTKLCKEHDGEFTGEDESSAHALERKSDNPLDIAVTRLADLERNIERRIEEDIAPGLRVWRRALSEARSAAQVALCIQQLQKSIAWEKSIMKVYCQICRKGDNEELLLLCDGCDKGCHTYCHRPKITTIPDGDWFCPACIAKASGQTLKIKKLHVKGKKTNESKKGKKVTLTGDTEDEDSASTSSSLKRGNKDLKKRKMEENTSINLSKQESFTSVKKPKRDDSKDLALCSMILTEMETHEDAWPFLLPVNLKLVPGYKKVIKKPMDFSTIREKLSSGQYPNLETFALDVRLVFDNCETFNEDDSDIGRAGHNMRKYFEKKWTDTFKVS", "assay": "qHTS Assay for Inhibitors of BAZ2B; further: nearly all actives have a fitted effect of over 60% in size", "settings": "AlphaScreen BAZ2B-H3K14Ac peptide displacement; activity change, negative = inhibition: at 114 µM (top of the series) unless noted", "in_short": "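BAZ2B (50 nM) with biotin-H3(5-23)K14Ac peptide (50 nM) in PBS pH 7.4, 0.01% Tween-20, preformed 30 min, then compound 30 min at room temperature; top concentration 110uM. AlphaScreen streptavidin donor/nickel chelate acceptor beads (10 ug/mL final), 20 min dark, signal read.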"}
{"smiles": "CCOc1ccccc1C(=O)OCC(=O)NCCNC(=O)COC(=O)c1ccccc1OCC", "Potency": "inconclusive: 70.8 µM [inhibitor, single point]"}
{"smiles": "CC(=O)Nc1ccc(NC(=O)C2CC(=O)N(Cc3ccccc3)C2)cc1", "note": "(stereo unspecified)", "activity change, negative = inhibition": "inactive: -10.7%"}
{"smiles": "CC(C)c1c(C(=O)N/N=C/c2c[nH]c3ccccc23)nnn1-c1nonc1N", "Potency": "inconclusive: 79.4 µM [inhibitor, single point]"}
{"smiles": "CCOc1ccc(NC(=O)CCn2cccc2)cc1", "Potency": "inconclusive: 50.1 µM [inhibitor, partial curve]"}
{"smiles": "COc1ccc(-c2noc(CSc3nc(C)cc(=O)[nH]3)n2)cc1OC", "activity change, negative = inhibition": "inactive: -17.2%"}
{"smiles": "COc1ccc(OCC2c3cc(OC)c(OC)cc3CCN2C(=O)COc2ccc(Cl)cc2Cl)cc1", "note": "(stereo unspecified)", "activity change, negative = inhibition": "inactive: -23.5%"}
{"smiles": "CN(C)CCCN(C(=O)c1ccc(S(=O)(=O)N(C)C)cc1)c1nc2cc3c(cc2s1)OCO3", "Potency": "inconclusive: 79.4 µM [inhibitor, single point]"}
{"smiles": "COc1ccc(Cn2ccc3nc(C)c(C(=O)N4CCN(c5ccccc5OC)CC4)cc3c2=O)cc1", "activity change, negative = inhibition": "inactive: -12.5%"}
{"smiles": "O=C(NCCCNC(=O)c1cncc(O)c1)c1cncc(O)c1", "Potency": "inconclusive: 89.1 µM [inhibitor, single point]"}
{"smiles": "CSc1ccccc1NC(=S)NCc1ccc(Cl)cc1", "Potency": "inconclusive: 50.1 µM [inhibitor, partial curve]"}
{"smiles": "COc1ccc(N2CCn3c2nc2c3c(=O)n(CCCc3ccccc3)c(=O)n2C)c(OC)c1", "Potency": "inconclusive: 31.6 µM [inhibitor, partial curve]"}
{"smiles": "CN1CCN(C(=O)C2CCCN(S(=O)(=O)c3ccccc3)C2)CC1", "note": "(stereo unspecified)", "Potency": "inconclusive: 89.1 µM [inhibitor, partial curve]"}
{"smiles": "CN(C)c1ccc(NC(=O)CN2CCN(CC(=O)Nc3ccc(F)cc3)CC2)cc1", "Potency": "inconclusive: 50.1 µM [inhibitor, partial curve]"}
{"smiles": "O=S(=O)(O)c1cccc2c(N=Nc3ccc(O)c4ncccc34)cccc12", "Potency": "active: 22.4 µM"}
{"smiles": "CN(C1CCS(=O)(=O)C1)S(=O)C12CC3CC(CC(C3)C1)C2", "note": "(stereo unspecified)", "activity change, negative = inhibition": "inactive: -1.03%"}
{"smiles": "CCOc1ccc(CC(=O)NCCc2csc(-c3ccc(Cl)cc3)n2)cc1", "activity change, negative = inhibition": "inactive: -0.623%"}
{"smiles": "COc1ccc(C(=O)Oc2cc(/C=N/NC(N)=S)ccc2OC)cc1", "Potency": "inconclusive: 70.8 µM [inhibitor, single point]"}
{"smiles": "Cc1cc(C)c(S(=O)(=O)NCC23C=CC(O2)C2C(=O)N(c4ccccc4)C(=O)C23)c(C)c1", "note": "(stereo unspecified)", "Potency": "inconclusive: 89.1 µM [inhibitor, single point]"}
{"smiles": "CCc1ccc(Nc2sc(C(=O)c3ccccc3)c(N)c2S(C)(=O)=O)cc1", "Potency": "inconclusive: 25.1 µM [inhibitor, partial curve]"}
{"smiles": "O=C1ON=C(c2ccccc2)/C1=C/c1ccc(-c2ccccc2[N+](=O)[O-])o1", "Potency": "active: 22.4 µM"}
{"smiles": "Cc1ccc(CSc2nc(-c3ccc(C(C)(C)C)cc3)nc3cc(=O)[nH]n23)cc1", "Potency": "inconclusive: 79.4 µM [inhibitor, single point]"}
{"smiles": "COc1cc(/C=C2\\SC(=S)N(C(C(=O)O)c3ccccc3)C2=O)ccc1O", "note": "(stereo unspecified)", "Potency": "inconclusive: 39.8 µM [inhibitor, partial curve]"}
{"smiles": "CCOc1cc(NC(=S)NCc2ccco2)c(OCC)cc1NC(C)=O", "Potency": "inconclusive: 79.4 µM [inhibitor, single point]"}
{"smiles": "CCOc1ccc(-n2c(C)cc(/C=N\\NC(=O)CC(=O)NC3CCCCC3)c2C)cc1", "Potency": "inconclusive: 50.1 µM [inhibitor, partial curve]"}
{"smiles": "CCOC(=O)c1[nH]c(C)c(CCC(=O)N2CCN(c3cccc(C)c3C)CC2)c1C", "Potency": "inconclusive: 39.8 µM [inhibitor, full curve, poor fit]"}
{"smiles": "CN1CCN(c2ccc(S(=O)(=O)N3CCCCC3)cc2NC(=O)c2ccc3ccccc3c2)CC1", "Potency": "inconclusive: 28.2 µM [inhibitor, full curve]"}
{"smiles": "NCCCNC(=O)Cn1c(=O)c2c3c(sc2n(Cc2ccccc2)c1=O)CCCC3", "Potency": "inconclusive: 56.2 µM [inhibitor, partial curve]"}
{"smiles": "Cc1ccc(N2C(=O)/C(=C\\c3ccco3)SC2=S)cc1", "Potency": "active: 56.2 µM"}
{"smiles": "CCOC(=O)N1CCN(S(=O)(=O)c2ccc(C(=O)N(CCN(C)C)c3nc4ccc(CC)cc4s3)cc2)CC1", "Potency": "inconclusive: 39.8 µM [inhibitor, partial curve]"}
{"smiles": "CN(Cc1ccccc1)C(=O)c1cccc(NC(=O)c2nsc3ccccc23)c1", "activity change, negative = inhibition": "inactive: -0.287%"}
{"smiles": "COc1ccc(CNc2nc3ccccc3n2CCN2CCCCC2)c(OC)c1", "Potency": "inconclusive: 79.4 µM [inhibitor, single point]"}
{"smiles": "O=c1ccn(Cc2ccccc2)c(=O)n1Cc1ccccc1", "activity change, negative = inhibition": "inactive: 3.65%"}
{"smiles": "Nc1nc(Nc2ccccc2F)sc1C(=O)c1ccccc1", "Potency": "active: 44.7 µM"}
{"smiles": "O=C(O)c1ccccc1-c1ccccc1C(=O)NNc1ccc([N+](=O)[O-])cc1", "Potency": "inconclusive: 79.4 µM [inhibitor, single point]"}
{"smiles": "COC(=O)c1c(-c2ccc(OC)c(OC)c2)csc1N", "Potency": "inconclusive: 56.2 µM [inhibitor, partial curve]"}
{"smiles": "Oc1ccc(Br)cc1CN1CCCCCCC1", "Potency": "active: 50.1 µM"}
{"smiles": "CC(=O)c1ccc(-c2ccc(C(=O)N3CCCc4ccccc43)o2)cc1", "Potency": "inconclusive: 44.7 µM [inhibitor, partial curve]"}
{"smiles": "CCN1C(=O)C(CC(=O)Nc2ccc(OC)cc2)N(CCCN2CCN(c3ccc(F)cc3)CC2)C1=S", "note": "(stereo unspecified)", "Potency": "inconclusive: 44.7 µM [inhibitor, partial curve]"}
{"smiles": "Cc1ccc(CN2CCC(C(=O)NCCC(C)C)CC2)o1", "Potency": "inconclusive: 89.1 µM [inhibitor, single point]"}
{"smiles": "COC(=O)C1=C(C)N=c2s/c(=C/c3ccoc3)c(=O)n2C1c1ccccc1", "note": "(stereo unspecified)", "Potency": "inconclusive: 31.6 µM [inhibitor, partial curve]"}
{"smiles": "Cc1ccc2c(c1)C(c1ccc(N3CCOCC3)cc1)=NNC(c1cccs1)=N2", "Potency": "inconclusive: 79.4 µM [inhibitor, single point]"}
{"smiles": "C=CCOc1ccccc1CNc1ccc2[nH]c(=O)[nH]c2c1", "Potency": "active: 56.2 µM"}
{"smiles": "Cc1ccccc1CNC(=O)Nc1cccs1", "activity change, negative = inhibition": "inactive: -28.3%"}
{"smiles": "c1ccc(CN2CCC3(CC2)Nc2ccccc2S3)cc1", "Potency": "inconclusive: 50.1 µM [inhibitor, partial curve]"}
{"smiles": "Cc1c(C(=O)OCC2CCCO2)[nH]c2c1C(=O)CC(c1ccco1)C2", "note": "(stereo unspecified)", "Potency": "active: 22.4 µM"}
{"smiles": "CCS(=O)(=O)c1ccc(OC)c(N=Nc2ccc(O)c3ncccc23)c1", "Potency": "active: 8.91 µM"}
{"smiles": "COC(=O)Nc1cc(C(=O)c2ccc(Cl)cc2Cl)c[nH]1", "Potency": "inconclusive: 50.1 µM [inhibitor, partial curve]"}
{"smiles": "Cc1cc(C)nc(N/N=C/C=C/c2ccccc2)n1", "activity change, negative = inhibition": "inactive: -32.4%"}
{"smiles": "O=C(c1ccc2c(c1)CCN2S(=O)(=O)c1ccc(Cl)cc1)N1CCN(c2ccccc2)CC1", "Potency": "inconclusive: 79.4 µM [inhibitor, partial curve]"}
{"smiles": "CCOC(=O)c1c(C)oc2c1c(C(c1ccncc1)N1CCOCC1)c(O)c1ccccc12", "note": "(stereo unspecified)", "Potency": "active: 14.1 µM"}
{"smiles": "COc1ccc(OC)c(NC(=O)CCc2nnc3ccc(NCc4ccco4)nn23)c1", "Potency": "inconclusive: 44.7 µM [inhibitor, partial curve]"}
{"smiles": "Nc1nnnn1/N=C/c1cc(Cl)cc(Cl)c1OCc1ccc(Cl)cc1Cl", "Potency": "inconclusive: 7.08 µM [inhibitor, single point]"}
{"smiles": "O=C(Nc1cccc(O)c1)c1ccc(NC(=O)c2cccs2)cc1", "activity change, negative = inhibition": "inactive: -18.5%"}
{"smiles": "O=C(N/N=C\\c1ccccc1)c1sccc1-n1cccc1", "Potency": "inconclusive: 89.1 µM [inhibitor, single point]"}
{"smiles": "COc1ccc(CC(=O)Nc2ccc3nc(SC)sc3c2)cc1OC", "Potency": "inconclusive: 70.8 µM [inhibitor, single point]"}
{"smiles": "O=C(COC(=O)c1ccccn1)NNC(=O)c1ccc([N+](=O)[O-])cc1", "Potency": "inconclusive: 89.1 µM [inhibitor, single point]"}
{"smiles": "CCN(c1ccccc1)S(=O)(=O)c1ccc(C(=O)N(CCCN(C)C)c2nc3c(C)cccc3s2)cc1", "Potency": "active: 28.2 µM"}
{"smiles": "CCOc1cc(CNc2cccc3[nH]c(C)nc23)ccc1OC", "Potency": "inconclusive: 50.1 µM [inhibitor, partial curve]"}
{"smiles": "CCCN(CCC)S(=O)(=O)c1cc(Br)cc2c1N(C(=O)CC)CC2", "activity change, negative = inhibition": "inactive: 13.2%"}
{"smiles": "OCc1ccc2c(c1)c(-c1ccc3c(c1)OCCO3)c(-c1ccccc1)n2-c1ccccc1", "Potency": "inconclusive: 39.8 µM [inhibitor, partial curve]"}
{"smiles": "N#Cc1sc2nc(-c3ccccc3)cc(C(F)(F)F)c2c1N", "activity change, negative = inhibition": "inactive: -14.6%"}
{"smiles": "O=C(C1CCN(S(=O)(=O)c2cccc3nsnc23)CC1)N1CC=C(c2ccccc2)CC1", "Potency": "inconclusive: 89.1 µM [inhibitor, single point]"}
{"smiles": "Cc1cc(NC(=O)CSc2nnc3c(C)cc4cc(C)c(C)cc4n23)no1", "activity change, negative = inhibition": "inactive: 2.32%"}
{"smiles": "O=C(O)CCC(=O)c1c[nH]c2ccccc12", "activity change, negative = inhibition": "inactive: -4.12%"}
{"smiles": "O=C(c1ccc2c(c1)OCO2)N1CCCN(C(=O)c2ccc3c(c2)OCO3)CC1", "activity change, negative = inhibition": "inactive: 0.972%"}
{"smiles": "CSc1ccc(-c2nc3cnccn3c2Nc2ccc3c(c2)OCO3)cc1", "Potency": "active: 11.2 µM"}
{"smiles": "O=C(c1cccc(NS(=O)(=O)c2ccc(F)cc2)c1)N1CCN(c2ccccc2)CC1", "activity change, negative = inhibition": "inactive: -32.4%"}
{"smiles": "CC1=CC(=O)c2ccccc2C1=O", "Potency": "inconclusive: 10 µM [inhibitor, partial curve, poor fit]"}
{"smiles": "C/C(=N\\Nc1nnc(C)c(=O)[nH]1)C(=O)O", "Potency": "active: 12.6 µM"}
{"smiles": "CCN(C(=O)c1cc2cc(Br)cc(OC)c2oc1=O)c1ccccc1", "activity change, negative = inhibition": "inactive: -13.8%"}
{"smiles": "CCCCCOC(=O)c1[nH]c2c(c1C)C(=O)CC(c1ccco1)C2", "note": "(stereo unspecified)", "Potency": "active: 56.2 µM"}
